Source: a collection of fitness landscapes (doi:10.1038/s41467-024-54723-y)
The full ranking holds about 18,000 sequences; the median of “TetR repression strength (sort-seq, GFP reporter)” is about 0.23, and the highest 2% start at about 0.68. The list shows a part of the results.

target: TetR (class B, Tn10) (UniProt P04483); test: TetR repression strength (sort-seq, GFP reporter) (relative to tetO2 = 1); higher = stronger repression; settings: E. coli
In short: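 E. coli SIG10-MAX carried a low-copy plasmid library with eight randomized operator positions between a constitutive promoter and sfGFP, with TetR constitutively expressed. Cells grew 5 h at 37 °C in LB with 50 µg/mL chloramphenicol, then 10^6 cells were FACS-sorted into 13 fluorescence bins, each Illumina-sequenced. Repression strength is the top bin index plus one minus the read-weighted mean bin, divided by the wild-type operator value. Three independent transformations; variants with ≥30 reads in all replicates and CV ≤0.5 were averaged.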

Chain of UniProt P04483 (P04483 whole entry): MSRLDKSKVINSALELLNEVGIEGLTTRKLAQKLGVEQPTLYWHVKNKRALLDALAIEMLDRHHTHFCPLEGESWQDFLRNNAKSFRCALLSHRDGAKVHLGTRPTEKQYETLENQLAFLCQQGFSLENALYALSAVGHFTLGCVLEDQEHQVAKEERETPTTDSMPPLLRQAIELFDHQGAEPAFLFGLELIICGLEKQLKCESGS

Question: Which TetR repression strength does the source give for TCCCGTATAGTACGAGAGA here?
Answer: 0.373

Question: For TCCCCGGCAGTTTGGGAGA, which TetR repression strength is on record?
Answer: 0.322

Question: TCCCGGGGAGTGCGAGAGA was tested. Which TetR repression strength did it give?
Answer: 0.201

Question: For TCCCCATGAGTTGGCGAGA, which TetR repression strength is on record?
Answer: 0.123

Question: For TCCCTTGGAGTCTCCGAGA, which TetR repression strength is on record?
Answer: 0.261

Question: With TCCCCAGGAGTAGACGAGA as the sequence, how does the TetR repression strength read?
Answer: 0.268

Question: How did the TetR repression strength turn out when TCCCGCGTAGTGACAGAGA was run?
Answer: 0.255

Question: How did the TetR repression strength turn out when TCCCACTAAGTAATGGAGA was run?
Answer: 0.358

Question: How did the TetR repression strength turn out when TCCCGTCCAGTTGGCGAGA was run?
Answer: 0.183

Question: Which TetR repression strength does the source give for TCCCAGCAAGTGGACGAGA here?
Answer: 0.239

Question: TCCCTGTAAGTCGCTGAGA was tested. Which TetR repression strength did it give?
Answer: 0.465

Question: TCCCTCCTAGTCTCCGAGA was tested. Which TetR repression strength did it give?
Answer: 0.394

Question: Which TetR repression strength does the source give for TCCCTAGTAGTGAGAGAGA here?
Answer: 0.351

Question: For TCCCAAATAGTTCTTGAGA, which TetR repression strength is on record?
Answer: 0.407

Question: TCCCTGACAGTGGTAGAGA was tested. Which TetR repression strength did it give?
Answer: 0.155

Question: With TCCCGGATAGTTTCGGAGA as the sequence, how does the TetR repression strength read?
Answer: 0.283

Question: Which TetR repression strength does the source give for TCCCATTTAGTACACGAGA here?
Answer: 0.289

Question: For TCCCGCATAGTTAGTGAGA, which TetR repression strength is on record?
Answer: 0.129

Question: How did the TetR repression strength turn out when TCCCGCGGAGTTAGAGAGA was run?
Answer: 0.295

Question: TCCCTACGAGTTTTTGAGA was tested. Which TetR repression strength did it give?
Answer: 0.197

Question: With TCCCTGACAGTGTTGGAGA as the sequence, how does the TetR repression strength read?
Answer: 0.215

Question: Which TetR repression strength does the source give for TCCCTCTCAGTGTATGAGA here?
Answer: 0.235

Question: How did the TetR repression strength turn out when TCCCAGTGAGTGAGCGAGA was run?
Answer: 0.127

Question: With TCCCCGTGAGTCCTTGAGA as the sequence, how does the TetR repression strength read?
Answer: 0.426

Question: How did the TetR repression strength turn out when TCCCGTCGAGTATCTGAGA was run?
Answer: 0.339

Question: How did the TetR repression strength turn out when TCCCTTTTAGTCATTGAGA was run?
Answer: 0.25

Question: For TCCCCCCGAGTAACCGAGA, which TetR repression strength is on record?
Answer: 0.311

Question: For TCCCTAATAGTCTGGGAGA, which TetR repression strength is on record?
Answer: 0.274

Question: How did the TetR repression strength turn out when TCCCGGCGAGTGTATGAGA was run?
Answer: 0.437

Question: TCCCGTGGAGTGTGCGAGA was tested. Which TetR repression strength did it give?
Answer: 0.101

Question: For TCCCAGCTAGTGGCAGAGA, which TetR repression strength is on record?
Answer: 0.571

Question: Which TetR repression strength does the source give for TCCCTTATAGTCTCGGAGA here?
Answer: 0.214

Question: For TCCCGTCTAGTTTGCGAGA, which TetR repression strength is on record?
Answer: 0.277

Question: With TCCCGCCGAGTAGACGAGA as the sequence, how does the TetR repression strength read?
Answer: 0.0297

Question: Which TetR repression strength does the source give for TCCCGAGGAGTGGGAGAGA here?
Answer: 0.163

Question: TCCCTTAGAGTAGCGGAGA was tested. Which TetR repression strength did it give?
Answer: 0.587

Question: With TCCCGAAAAGTGCCTGAGA as the sequence, how does the TetR repression strength read?
Answer: 0.172

Question: With TCCCGGCCAGTAAAGGAGA as the sequence, how does the TetR repression strength read?
Answer: 0.0748

Question: TCCCGGGGAGTCGATGAGA was tested. Which TetR repression strength did it give?
Answer: 0.201

Question: For TCCCGAGGAGTCCCAGAGA, which TetR repression strength is on record?
Answer: 0.428

Question: For TCCCTCTGAGTGGACGAGA, which TetR repression strength is on record?
Answer: 0.0822

Question: Which TetR repression strength does the source give for TCCCCCTAAGTACGGGAGA here?
Answer: 0.103

Question: TCCCTAGCAGTACGGGAGA was tested. Which TetR repression strength did it give?
Answer: 0.0666

Question: Which TetR repression strength does the source give for TCCCATGGAGTACTAGAGA here?
Answer: 0.166

Question: Which TetR repression strength does the source give for TCCCTTGCAGTTGATGAGA here?
Answer: 0.274

Question: TCCCCTTGAGTCTGAGAGA was tested. Which TetR repression strength did it give?
Answer: 0.333

Question: With TCCCAGTCAGTTAAGGAGA as the sequence, how does the TetR repression strength read?
Answer: 0.273

Question: For TCCCCAATAGTACTGGAGA, which TetR repression strength is on record?
Answer: 0.18

Question: TCCCATCAAGTCGATGAGA was tested. Which TetR repression strength did it give?
Answer: 0.153

Question: For TCCCTGGAAGTCAGAGAGA, which TetR repression strength is on record?
Answer: 0.0274

Question: Which TetR repression strength does the source give for TCCCGACGAGTAGGTGAGA here?
Answer: 0.187

Question: With TCCCCACGAGTTGCAGAGA as the sequence, how does the TetR repression strength read?
Answer: 0.3

Question: TCCCTGCTAGTCACGGAGA was tested. Which TetR repression strength did it give?
Answer: 0

Question: With TCCCCCGGAGTAAGGGAGA as the sequence, how does the TetR repression strength read?
Answer: 0.239

Question: With TCCCGACCAGTCTTGGAGA as the sequence, how does the TetR repression strength read?
Answer: 0.31

Question: TCCCCTGCAGTGCGAGAGA was tested. Which TetR repression strength did it give?
Answer: 0.0342

Question: Which TetR repression strength does the source give for TCCCGTAGAGTCGCGGAGA here?
Answer: 0.241

Question: For TCCCCGTAAGTGGAGGAGA, which TetR repression strength is on record?
Answer: 0.0301

Question: With TCCCTAAAAGTCTAAGAGA as the sequence, how does the TetR repression strength read?
Answer: 0.29

Question: For TCCCATCTAGTAATGGAGA, which TetR repression strength is on record?
Answer: 0.439

Question: TCCCACGTAGTTACGGAGA was tested. Which TetR repression strength did it give?
Answer: 0.305

Question: TCCCATGGAGTATAGGAGA was tested. Which TetR repression strength did it give?
Answer: 0.309

Question: Which TetR repression strength does the source give for TCCCGGGGAGTGTTGGAGA here?
Answer: 0.415

Question: How did the TetR repression strength turn out when TCCCTACGAGTATCAGAGA was run?
Answer: 0.311

Question: Which TetR repression strength does the source give for TCCCGCTGAGTGGCTGAGA here?
Answer: 0.167

Question: For TCCCGATGAGTGGGAGAGA, which TetR repression strength is on record?
Answer: 0.316

Question: How did the TetR repression strength turn out when TCCCATTCAGTCCGCGAGA was run?
Answer: 0.259

Question: TCCCGGTCAGTTTTGGAGA was tested. Which TetR repression strength did it give?
Answer: 0.169

Question: For TCCCAGGGAGTTACAGAGA, which TetR repression strength is on record?
Answer: 0.167

Question: TCCCTTCGAGTGGCGGAGA was tested. Which TetR repression strength did it give?
Answer: 0.391

Question: How did the TetR repression strength turn out when TCCCAGACAGTTATGGAGA was run?
Answer: 0.208

Question: With TCCCCTAGAGTAGCCGAGA as the sequence, how does the TetR repression strength read?
Answer: 0.392

Question: TCCCTGAGAGTCGTGGAGA was tested. Which TetR repression strength did it give?
Answer: 0.239

Question: Which TetR repression strength does the source give for TCCCGGGAAGTACTAGAGA here?
Answer: 0.161

Question: How did the TetR repression strength turn out when TCCCCTTTAGTCGGGGAGA was run?
Answer: 0.151

Question: How did the TetR repression strength turn out when TCCCGTGTAGTCCTGGAGA was run?
Answer: 0.187

Question: Which TetR repression strength does the source give for TCCCGGCCAGTCCAGGAGA here?
Answer: 0.219

Question: How did the TetR repression strength turn out when TCCCATAAAGTCAGGGAGA was run?
Answer: 0.158

Question: Which TetR repression strength does the source give for TCCCCACGAGTGTTTGAGA here?
Answer: 0.514

Question: TCCCTATTAGTGAGCGAGA was tested. Which TetR repression strength did it give?
Answer: 0.346

Question: For TCCCGCTGAGTGCAAGAGA, which TetR repression strength is on record?
Answer: 0.408

Question: TCCCGGTTAGTTACGGAGA was tested. Which TetR repression strength did it give?
Answer: 0.211

Question: How did the TetR repression strength turn out when TCCCCGGTAGTCCAGGAGA was run?
Answer: 0.393

Question: How did the TetR repression strength turn out when TCCCATGGAGTGCCCGAGA was run?
Answer: 0.353

Question: For TCCCGGAAAGTTGTGGAGA, which TetR repression strength is on record?
Answer: 0.275

Question: With TCCCTGTAAGTTAACGAGA as the sequence, how does the TetR repression strength read?
Answer: 0.194

Question: For TCCCTTTTAGTAGAGGAGA, which TetR repression strength is on record?
Answer: 0.173

Question: With TCCCACCAAGTGGGAGAGA as the sequence, how does the TetR repression strength read?
Answer: 0.111

Question: How did the TetR repression strength turn out when TCCCCTGGAGTCAGTGAGA was run?
Answer: 0.18

Question: TCCCCGGTAGTGTTTGAGA was tested. Which TetR repression strength did it give?
Answer: 0.235

Question: How did the TetR repression strength turn out when TCCCGGTCAGTTGGTGAGA was run?
Answer: 0.254

Question: For TCCCGTATAGTGGACGAGA, which TetR repression strength is on record?
Answer: 0.0457

Question: With TCCCGGGGAGTGTGCGAGA as the sequence, how does the TetR repression strength read?
Answer: 0.126

Question: Which TetR repression strength does the source give for TCCCATAGAGTAATGGAGA here?
Answer: 0.303

Question: Which TetR repression strength does the source give for TCCCCTCTAGTAGTGGAGA here?
Answer: 0.129

Question: For TCCCGCAGAGTGGCGGAGA, which TetR repression strength is on record?
Answer: 0.117

Question: For TCCCGGGAAGTTAAAGAGA, which TetR repression strength is on record?
Answer: 0.0494

Question: TCCCACCAAGTGGGTGAGA was tested. Which TetR repression strength did it give?
Answer: 0.139

Question: How did the TetR repression strength turn out when TCCCGGTAAGTGGCGGAGA was run?
Answer: 0.184

Question: How did the TetR repression strength turn out when TCCCTATAAGTGCATGAGA was run?
Answer: 0.588

Question: Which TetR repression strength does the source give for TCCCCGTCAGTAGCCGAGA here?
Answer: 0.303

Question: Which TetR repression strength does the source give for TCCCGCAGAGTGGGAGAGA here?
Answer: 0.131
